Data published in the antibiotic and cytotoxicity screens of Wong et al. (2023).
The list shows a part of the results.

What was measured:
HSkMC = human skeletal muscle cells; test: cytotoxicity call (relative viability < 0.9); settings: 10 µM
HepG2 = test: cytotoxicity call (relative viability < 0.9); settings: 10 µM
S. aureus RN4220 = test: growth inhibition call (relative growth <= 0.2); settings: 50 µM

Compound | cytotoxicity call (HSkMC) | cytotoxicity call (HepG2) | growth inhibition call (S. aureus RN4220)
Cc1noc(C)c1NC(=O)N(C)C[C@H]1Oc2ccc(NC(=O)Nc3ccc(C(F)(F)F)cc3)cc2CC(=O)N([C@@H](C)CO)C[C@@H]1C | inactive | inactive | inactive
O=C(O)c1ccc(O)cn1 | inactive | inactive | inactive
CN1CCN(C(=O)C[C@@H]2CC[C@H]3[C@@H](COC[C@H](O)CN3Cc3ccc(Oc4ccccc4)cc3)O2)CC1 | inactive | inactive | inactive
C[C@H]1CN([C@@H](C)CO)S(=O)(=O)c2ccc(-c3ccc(C(=O)N(C)C)cc3)cc2O[C@H]1CN(C)C(=O)C1CC1 | inactive | inactive | inactive
NC1(Cc2ccc(Cl)cc2)CCN(c2ncnc3[nH]ccc23)CC1 | inactive | active | inactive
C[C@@H]1CN([C@@H](C)CO)C(=O)c2cc(NC(=O)Nc3ccc4c(c3)OCO4)ccc2O[C@@H]1CN(C)S(=O)(=O)c1cn(C)cn1 | inactive | inactive | inactive
Cc1noc(C)c1NC(=O)N(C)C[C@@H]1Oc2ccc(NS(=O)(=O)c3cn(C)cn3)cc2CC(=O)N([C@H](C)CO)C[C@@H]1C | inactive | inactive | inactive
CC(COc1ccccc1)N(CCCl)Cc1ccccc1.Cl (stereo not given) | inactive | inactive | inactive
COc1ccc(NC(=O)Nc2cccc3c2O[C@H](CN(C)Cc2ccc(Cl)c(Cl)c2)[C@H](C)CN([C@@H](C)CO)C3=O)cc1 | inactive | inactive | inactive
N[C@@H](CCC(=O)N[C@@H](CCS[C@@H](CC(=O)O)C(=O)O)C(=O)NCC(=O)O)C(=O)O | inactive | inactive | inactive
